Laboratory results reported in PubChem BioAssay AID1476 (National Center for Advancing Translational Sciences (NCATS), 2009).
Screen size: about 200,000 compounds; about 4,500 (2.2%) were called active. Inconclusive results, whose numbers are uncertain, are shown with a selection of clear calls. Calls come from the whole dose curve; as a rule, active = well fitted inhibition curve with a large enough effect; inconclusive = small, poorly fitted or top-dose-only effect, or effect the other way; inactive = flat fitted curve, though single readings scatter. Potencies beside an inconclusive call are fits to weak or partial responses and may not hold up.

Target: Cruzipain (Trypanosoma cruzi) (UniProt P25779)
Chain of UniProt P25779 (P25779 whole entry, looked up): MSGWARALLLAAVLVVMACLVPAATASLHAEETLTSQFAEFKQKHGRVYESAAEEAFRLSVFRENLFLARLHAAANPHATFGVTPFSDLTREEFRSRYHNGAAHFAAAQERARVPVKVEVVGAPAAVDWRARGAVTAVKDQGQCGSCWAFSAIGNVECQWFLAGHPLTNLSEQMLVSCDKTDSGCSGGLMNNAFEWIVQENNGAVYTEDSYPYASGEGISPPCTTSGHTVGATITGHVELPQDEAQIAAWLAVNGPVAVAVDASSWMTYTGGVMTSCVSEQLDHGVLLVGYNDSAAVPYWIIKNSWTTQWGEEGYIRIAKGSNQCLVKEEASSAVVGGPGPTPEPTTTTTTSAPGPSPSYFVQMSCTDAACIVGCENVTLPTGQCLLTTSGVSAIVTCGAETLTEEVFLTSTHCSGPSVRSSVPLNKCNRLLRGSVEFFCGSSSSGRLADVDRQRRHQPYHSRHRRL
Assay: qHTS Assay for Promiscuous and Specific Inhibitors of Cruzain (without detergent); note: nearly all actives have a fitted effect of over 40% in size;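 for max response, negative = inhibition: plate controls were enzyme without inhibitor for no effect and buffer without enzyme for full effect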
Conditions: purified cruzain, Z-FR-AMC fluorescence, no detergent
Outline: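 Detergent-free condition (0.00005% Triton X-100) in acetate buffer pH 5.5 with DTT. 1.5 nM enzyme and compound were pre-mixed 15 min, then 2 uM Z-FR-AMC substrate added; reaction progress from fluorescence change between first and third reads (60 s).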
Potency is the fitted concentration of half-maximal effect; tags give direction and shape of the fitted curve.

Structure (SMILES) | max response, negative = inhibition | Potency
O=C(NCc1ccc(Cl)cc1)c1cc2ccccc2o1 | inactive: -6.17% | 
COc1cccc(NC(=O)c2ccc(S(=O)(=O)N3CCCCC3)cc2)c1 |  | inconclusive: 5.01 µM [inhibitor, partial curve, poor fit]
COc1ccc(-c2c(C)cc3oc(=O)cc(-c4ccccc4)c3c2C)cc1F |  | active: 39.8 µM
CCOc1ccc(N(C(=O)c2ccc(C)cc2)S(=O)(=O)c2ccc3c(c2)n(C)c(=O)n3C)cc1 |  | inconclusive: 39.8 µM [activator, single point]
Cc1ccccc1C(=O)Nc1nnc(-c2ccc(C(C)(C)C)cc2)s1 |  | inconclusive: 39.8 µM [inhibitor, single point]
COc1ccc2oc(=N)c(C(=O)Nc3ccccc3)cc2c1 | inactive: 5.44% | 
CSCCC(NC(=O)c1ccccc1Br)C(=O)Nc1ccc(C)cc1 (stereo not drawn) |  | inconclusive: 39.8 µM [inhibitor, single point]
CCCN1C(=O)/C(=C/C=C2\N(CC)c3ccccc3C2(C)C)SC1=S |  | inconclusive: 31.6 µM [inhibitor, single point]
COc1ccc(CNC(=O)CCCc2cn(C)c3ccccc23)c(OC)c1 | inactive: 6.46% | 
CCOC(=O)c1ccc(NC(=O)Cc2ccc(-n3c(CC)nc4cccnc43)cc2)cc1 |  | inconclusive: 39.8 µM [activator, single point]
Cc1ccc(-n2nnnc2SCC(=O)Nc2ccc3c(c2)OCCO3)cc1C | inactive: -4.7% | 
O=C(Cc1ccccc1)Nc1ccc(NC(=O)c2cccs2)c(Cl)c1 |  | inconclusive: 39.8 µM [inhibitor, single point]
Cc1ccc(/C=C/c2onc(C)c2S(=O)(=O)N2CCC(C(=O)N3CCOc4ccccc43)CC2)cc1 | inactive: -28.3% | 
CCOC(=O)c1cc(-c2ccccc2)n(CCCC(=O)Nc2cccc(Cl)c2C)c1C | inactive: 13.9% | 
CSc1ccc(CCNC(=O)C(C)n2c(C)c3cnn(-c4ccccc4)c(=O)c3c2C)cc1 (stereo not drawn) |  | inconclusive: 39.8 µM [activator, single point]
COC(=O)c1sccc1NC(=O)CSc1ccccc1NS(=O)(=O)c1cc(Cl)ccc1Cl |  | inconclusive: 39.8 µM [inhibitor, partial curve, poor fit]
Cc1cc(C)cc(NC(=O)Cn2nnc(C(=O)Nc3cc(C)cc(C)c3)c2N)c1 |  | inconclusive: 39.8 µM [inhibitor, single point]
CCc1ccc(CNC(=O)CCN2C(=O)COc3ccccc32)cc1 | inactive: -4.31% | 
COC(=O)c1ccccc1NC(=O)N1c2ccccc2Sc2ccccc21 |  | inconclusive: 39.8 µM [inhibitor, single point]
Cc1nc(-c2ccc(F)cc2)sc1CCNC(=O)c1ccco1 | inactive: 2.07% | 
CCCCCC(=O)N1CCN(CCN=CC2=C(O)CC(c3ccc(OC)c(OC)c3)CC2=O)CC1 (stereo not drawn) |  | inconclusive: 25.1 µM [activator, single point]
CCOC(=O)C1=C(C)Nc2ncnn2C1/C=C/c1ccccc1 (stereo not drawn) |  | inconclusive: 39.8 µM [inhibitor, single point]

Structure (SMILES) | max response, negative = inhibition | Potency
COc1ccccc1N1CCN(C(=O)c2oc3ccc(Br)cc3c2C)CC1 |  | inconclusive: 20 µM [activator, single point]
COC(=O)c1cc(C(=O)OC)cc(N2C(=O)CC(NNC(=O)c3ccccc3Br)C2=O)c1 (stereo not drawn) | inactive: 0.166% | 
COc1ccccc1N1CCN(C(=O)c2oc3ccc(F)cc3c2C)CC1 |  | inconclusive: 39.8 µM [activator, single point]
Cc1ccc(-c2c3c(=O)n(C)c(=O)n(C)c3c3c(C(F)(F)F)nc4ccccc4n23)cc1 |  | inconclusive: 0.631 µM [activator, full curve]
COc1cc(CNC(=O)c2cc3n(n2)CCCN(Cc2ccc(C)cc2)C3=O)cc(OC)c1OC |  | inconclusive: 31.6 µM [activator, single point]
Cc1ccc(CCNc2nc3c(S(=O)(=O)c4ccc(C)cc4)nnn3c3ccsc23)cc1 | inactive: -3.44% | 
CC(C)c1ccc(NC(=O)c2ccc(NC(=O)CCS(=O)(=O)c3cccs3)cc2)cc1 |  | active: 31.6 µM
COc1ccc(NC(=S)Nc2cccc(S(=O)(=O)N3CCCCC3)c2)cc1 |  | inconclusive: 39.8 µM [activator, single point]
CC(/C=C1\N=C(SCc2ccccc2Cl)SC1=O)=C\c1ccccc1 |  | active: 25.1 µM
CC(=O)/C(=N\Nc1ccc(Cl)cc1Cl)Sc1cccc2cccnc12 |  | inconclusive: 12.6 µM [inhibitor, partial curve]
CC(C)c1nn2c(=O)cc(COC(=O)c3ccc(NC(=O)CCc4ccccc4)cc3)nc2s1 | inactive: -7.83% | 
CCCCCn1c(=O)[nH]c2cc(C(=O)Nc3ccc(F)cc3)ccc2c1=O |  | inconclusive: 3.98 µM [inhibitor, single point]
O=c1cc(O)nc(SCc2ccccc2)[nH]1 | inactive: -26.4% | 
CNC(=O)c1sc(N2N=C3/C(=C/c4ccccc4)CCCC3C2c2ccccc2)nc1C (stereo not drawn) |  | inconclusive: 39.8 µM [activator, single point]
Nc1ncnc2nn([C@H]3O[C@@H](CO)[C@@H](O)[C@H]3O)nc12 | inactive: 14% | 
COc1ccc(NC(=O)Cc2csc(C)n2)cc1 | inactive: -17.5% | 
CCCn1c2ccccc2c2cc(C(=O)O)ccc21 |  | inconclusive: 20 µM [inhibitor, single point]
Oc1ccc(Cc2cc(Cl)cc(Cl)c2O)cc1Cl | inactive: -7.89% | 
Cc1nn(Cc2ccc(F)cc2)c(C)c1NC(=O)c1cnn2c1NC(c1cccs1)CC2C(F)(F)F (stereo not drawn) |  | inconclusive: 20 µM [activator, partial curve]
CCc1cccc(NC(=O)CSc2ncc3c(n2)-c2ccccc2N(Cc2ccccc2C)S3(=O)=O)c1 |  | inconclusive: 7.94 µM [inhibitor, single point]
O=C(CC1(O)C(=O)N(CCc2ccccc2)c2ccc(Br)cc21)c1ccccc1O (stereo not drawn) | inactive: -13.7% | 
